Measured values: PubChem BioAssay AID624418 (National Center for Advancing Translational Sciences (NCATS), 2012)
The whole screen tested about 410,000 compounds, of which about 530 (0.13%) were called active. Inconclusive results, whose numbers are uncertain, are shown with a selection of clear calls. Calls follow the shape of the dose curve; as a rule, active = well fitted inhibition curve with a large enough effect; inconclusive = small, poorly fitted or top-dose-only effect, or another doubt; inactive = no such curve, though single readings can be large or run the other way. Where the call is inconclusive, the potency comes from a doubtful curve fit.
% is scaled to controls: 0 for no effect and ±100 for the full control effect; potency is read from the fitted curve at half-maximal effect.

Assay: qHTS of GLP-1 Receptor Inverse Agonists: Cytotox Screen
Settings: HEK293 cAMP-luciferase reporter cells, luminescence, 24 h; activity change, negative = inhibition: at 38.3 µM (top of the series) unless noted
In short: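 Step one: seed cells (200 cells/uL, DMEM with 10% Nu serum, 1% pen-strep). Step two: 12-hour incubation at 37 deg C. Step three: pin 23 nL compound, incubate 24 hr. Step four: add luciferase reagent, read luminescence 12 min later.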
For `COc1ccc(/C(N)=N/OC(=O)Cc2cccs2)cc1OC`, the “activity change, negative = inhibition” value was inactive: -10.9%. For `C=C(C)[C@@H]1CC[C@]2(C(=O)O)CC[C@]3(C)C(CCC4[C@@]5(C)CC[C@H](O)C(C)(C)C5CC[C@]43C)C12` (some centres not stated), the “activity change, negative = inhibition” value was inactive: 0.302%. In the case of `Cc1cc(-n2c(C)cc(C(=O)CSc3nnnn3-c3ccc(Cl)cc3)c2C)no1`, the Potency is reported as inconclusive: 28.2 µM [inhibitor, single point]. For `COc1ccc(C(=O)CSC#N)cc1OC`, the Potency was inconclusive: 11.2 µM [inhibitor, single point]. In the case of `C=C1CCC[C@]2(C)C[C@H]3OC(=O)C(CNC(CC)CO)[C@H]3CC12` (some centres not stated), the Potency is reported as inconclusive: 28.2 µM [inhibitor, single point]. With `CCOc1ccc(/C=C2\SC(=S)N(CCCC(=O)NCCCN3CCOCC3)C2=O)cc1` the Potency was inconclusive: 8.91 µM [inhibitor, partial curve, poor fit]. With `O=S(=O)(Nc1ccc(C(F)(F)F)cn1)c1ccccc1` the Potency was inconclusive: 28.2 µM [inhibitor, single point]. For `Cn1c(CCN2CCN(c3ccccc3)CC2)nc2cc(NC(=O)c3ccco3)ccc21`, the “activity change, negative = inhibition” value was inactive: 6.45%. In the case of `O=C(NC(=S)Nc1nc(-c2ccccc2)cs1)c1ccco1`, the Potency is reported as inconclusive: 28.2 µM [inhibitor, partial curve, poor fit]. In the case of `Cc1cccc(Cn2cc3c(=O)n(CC(=O)Nc4cccc(C)c4C)nc-3c3cc(F)ccc32)c1`, the “activity change, negative = inhibition” value is reported as inactive: 0.348%. For `CC(=O)Nc1cccc(NC(=O)CS(=O)(=O)c2cn(CC(=O)N3CCCC3)c3ccccc23)c1`, the “activity change, negative = inhibition” value was inactive: 3.09%. For `CCC(C)[C@@H](C(=O)Nc1ccc2c(c1)OCO2)N1Cc2ccccc2C1=O` (some centres not stated), the Potency was inconclusive: 1 µM [inhibitor, full curve]. With `CC(C)c1ccccc1NC(=O)CSc1n[nH]c(=O)n1C1CC1` the Potency was inconclusive: 3.98 µM [inhibitor, full curve]. In the case of `CCCNC(=O)c1nnsc1S(=O)(=O)c1ccc(Cl)cc1`, the Potency is reported as inconclusive: 22.4 µM [inhibitor, single point]. With `COc1cc(S(=O)(=O)Nc2ccccc2)ccc1NC=O` the Potency was inconclusive: 31.6 µM [inhibitor, single point]. With `COc1cc2nc(=S)n3[nH]c(COc4ccccc4C)nc3c2cc1OC` the Potency was inconclusive: 0.708 µM [inhibitor, full curve, poor fit]. In the case of `CCOC(=O)N1CCN(Cc2nc3cc(NC(=O)CC(C)C)ccc3n2C(C)C)CC1`, the Potency is reported as inconclusive: 1.26 µM [inhibitor, full curve, poor fit]. In the case of `O=[N+]([O-])c1cccc(C2=NC(c3ccccc3)CO2)c1` (configuration not stated), the “activity change, negative = inhibition” value is reported as inactive: 1.76%. For `CC(=O)Nc1ccc(OCC(O)CN2CCN(c3cc(Cl)ccc3C)CC2)cc1` (configuration not stated), the Potency was inconclusive: 14.1 µM [inhibitor, single point]. For `Cc1ccc(NC(=O)CCN2C(=O)c3ccccc3Sc3ncccc32)cc1`, the Potency was “inactive”. In the case of `FC(F)(F)c1cccc(NCc2n[nH]c(=S)n2C2CCCCC2)c1`, the “activity change, negative = inhibition” value is reported as inactive: -3.58%. With `Cc1ccc(Cl)cc1NC(=S)NCCCSC1CCCCC1` the Potency was inconclusive: 7.94 µM [inhibitor, partial curve, poor fit]. For `Cc1cc(C)n(-c2nc3ccccc3c(=O)n2OCC(=O)Nc2c(C)cccc2C)n1`, the Potency was inconclusive: 8.91 µM [inhibitor, partial curve]. In the case of `C=CCn1cnc2c(c1=O)c1nc3ccccc3nc1n2/N=C/c1cc(OC)c(OC)c(OC)c1`, the Potency is reported as inconclusive: 12.6 µM [inhibitor, single point]. For `CCOc1ccccc1N=NC1C(=O)N(C(N)=S)N=C1C` (configuration not stated), the Potency was inconclusive: 0.562 µM [inhibitor, full curve, poor fit]. In the case of `CCCCn1c2ccc(C)cc2c2nnc(SCCN3CCCCC3)nc21`, the Potency is reported as inconclusive: 28.2 µM [inhibitor, single point]. In the case of `COc1cc2c(cc1OC)C(c1cc3cc4c(cc3[nH]c1=O)OCO4)N(C(=O)C(C)C)CC2` (configuration not stated), the Potency is reported as inconclusive: 31.6 µM [inhibitor, single point]. In the case of `Cc1ccc(S(=O)(=O)N=S(CC2CC2(Cl)Cl)CC2CC2(Cl)Cl)cc1` (configuration not stated), the Potency is reported as inconclusive: 10 µM [inhibitor, single point]. With `Cc1[nH]nc2nc(SCC(=O)NCCC3=CCCCC3)n(-c3ccc(Br)cc3)c(=N)c12` the Potency was inconclusive: 11.2 µM [inhibitor, single point]. With `O=C(Cn1cc(/C=C\[N+](=O)[O-])c2ccccc21)Nc1ccccc1` the Potency was inconclusive: 31.6 µM [inhibitor, single point]. For `CN(C(=O)n1cnc2ccccc21)c1ccccc1`, the “activity change, negative = inhibition” value was inactive: -21.7%. In the case of `O=C(COc1ccc(Br)cc1CO)Nc1ccccc1F`, the “activity change, negative = inhibition” value is reported as inactive: -9.5%. In the case of `COc1ccc(-c2cc(C(F)(F)F)nc(S(=O)(=O)CCCC(=O)Nc3cc(C)on3)n2)cc1OC`, the Potency is reported as inconclusive: 22.4 µM [inhibitor, single point]. For `COc1ccc([N+](=O)[O-])cc1NC(=O)Nc1ccc(OC)c(OC)c1`, the Potency was inconclusive: 11.2 µM [inhibitor, single point]. For `O=C(NCc1ccccc1)c1onc(CSc2ccc(F)cc2)c1C(=O)NCCCN1CCOCC1`, the Potency was inconclusive: 28.2 µM [inhibitor, single point]. For `O=C(Cn1ncc(Cl)c(Cl)c1=O)NC(=O)NC1CCCCC1`, the Potency was inconclusive: 11.2 µM [inhibitor, partial curve, poor fit]. In the case of `O=C(/C=C/c1ccco1)NC(=S)Nc1ccc(N2CCOCC2)c(Cl)c1`, the Potency is reported as inconclusive: 5.01 µM [inhibitor, partial curve]. With `O=C(CC1C(=O)NCCN1C(=O)Nc1ccccc1)Nc1cc(Cl)ccc1Cl` (configuration not stated) the Potency was inconclusive: 28.2 µM [inhibitor, single point]. In the case of `CCOc1ccc(OCC)c(-c2c(=O)n(OCc3ccc(C(C)(C)C)cc3)c3ccccc3[n+]2[O-])c1`, the “activity change, negative = inhibition” value is reported as inactive: -10.2%. In the case of `Cc1ccc(Nc2nc(-c3ccc(O)c(O)c3)cs2)nc1`, the Potency is reported as inconclusive: 10 µM [inhibitor, single point]. In the case of `CCn1ncc(Cl)c1C(=O)NC(=S)Nc1ccccc1Br`, the Potency is reported as inconclusive: 3.16 µM [inhibitor, single point]. With `C(=N\N1CCN(c2ccccn2)CC1)/c1cccc2ccccc12` the “activity change, negative = inhibition” value was inactive: 7.74%. In the case of `CC1(C)CC(=O)c2cc(OCC(=O)N3CCN(c4ccccc4F)CC3)ccc2O1`, the Potency is reported as inconclusive: 20 µM [inhibitor, single point]. In the case of `COc1ccc(Br)cc1/C=N/Nc1ccccn1`, the “activity change, negative = inhibition” value is reported as inactive: 1.63%. In the case of `CC12CCC(C/C1=N\N=C1\NC(=O)/C(=C\c3cccc(Br)c3)S1)C2(C)C` (configuration not stated), the Potency is reported as inconclusive: 28.2 µM [inhibitor, single point]. In the case of `O=Cc1ccc(O)cc1O`, the “activity change, negative = inhibition” value is reported as inactive: 0.367%. In the case of `CC(C)Cn1c(-c2ccccc2)nc2ccccc2c1=O`, the “activity change, negative = inhibition” value is reported as inactive: -6.49%. With `O=[N+]([O-])c1cc(C(F)(F)F)ccc1NC1CCN(Cc2ccccc2)CC1` the Potency was inconclusive: 28.2 µM [inhibitor, single point]. With `Cc1ccc(NC(=O)C2CCN(C(=O)c3sc4nc[nH]c(=O)c4c3C)CC2)cc1F` the “activity change, negative = inhibition” value was inactive: -1.66%. For `C=C(C)C1CC=C(C)/C(=N/NC(=O)c2ccccc2[N+](=O)[O-])C1` (configuration not stated), the “activity change, negative = inhibition” value was inactive: 0.133%. With `CC12CCC(=O)N1C(C(=O)Nc1nc3ccc(F)cc3s1)CS2` (configuration not stated) the “activity change, negative = inhibition” value was inactive: 1.87%. In the case of `N#Cc1c(Nc2ccccc2)sc(C(=O)c2ccccc2)c1N`, the “activity change, negative = inhibition” value is reported as inactive: 10.6%. For `CCOC(=O)c1cnc2c(ccc3ccccc32)c1NCCN(C)C`, the Potency was inconclusive: 25.1 µM [inhibitor, single point]. For `COCC(=O)n1nc(-c2ccc(Cl)cc2)nc1NCc1ccc(F)cc1`, the Potency was inconclusive: 12.6 µM [inhibitor, single point]. For `Clc1cc(/C=N\NC2=NCCN2)cc(Cl)n1`, the Potency was inconclusive: 10 µM [inhibitor, single point]. In the case of `COc1ccccc1N1CCN(CCCCOc2cccc3ccccc23)CC1`, the Potency is reported as inconclusive: 8.91 µM [inhibitor, partial curve, poor fit]. For `CCN(C(=O)Cn1c(=O)n(CC2CCC(C(=O)NC)CC2)c(=O)c2sccc21)c1ccccc1` (configuration not stated), the “activity change, negative = inhibition” value was inactive: 4.77%. With `COc1cccc(Nc2nnc(SCn3nnc4ccccc4c3=O)s2)c1` the Potency was inconclusive: 5.62 µM [inhibitor, full curve, poor fit]. For `CC(=O)c1c(O)cc(O)c(C(C)=O)c1O`, the Potency was inconclusive: 10 µM [inhibitor, partial curve, poor fit]. For `CCCC(=O)NC(c1ccccc1Cl)c1ccc2cccnc2c1O` (configuration not stated), the Potency was inconclusive: 0.501 µM [inhibitor, full curve, poor fit]. With `O=C(CN1CCCCC1)Nc1nc(-c2ccc(F)c(F)c2)cs1` the Potency was inconclusive: 10 µM [inhibitor, partial curve, poor fit]. In the case of `CCOc1ccc2nc(-c3ccccc3)nc(SCC(=O)Nc3ncc(C)s3)c2c1`, the Potency is reported as inconclusive: 28.2 µM [inhibitor, single point]. With `CC(/C=C/c1ccc(N(C)C)cc1)=N\N=C(/N)SC1CC(=O)N(c2ccc(C(=O)O)cc2)C1=O` (configuration not stated) the Potency was inconclusive: 20 µM [inhibitor, single point]. For `CCN1CCN(CCCNC(=O)C2CCCN(c3nc4c(C)cc(C)cc4s3)C2)CC1` (configuration not stated), the Potency was inconclusive: 20 µM [inhibitor, single point]. In the case of `Cc1ccc(C(=O)NC(=S)N2CCN(c3cc(C)ccc3C)CC2)cc1`, the Potency is reported as inconclusive: 28.2 µM [inhibitor, single point]. For `C[C@@H]1CCCCO[C@H](CN(C)Cc2ccc(Cl)c(Cl)c2)[C@H](C)CN([C@@H](C)CO)C(=O)c2cc(NC(=O)Nc3ccc(F)cc3)ccc2O1`, the Potency was inconclusive: 10 µM [inhibitor, single point]. For `CCC(OCC(O)CN1CCCCC1)c1ccccc1` (configuration not stated), the Potency was inconclusive: 12.6 µM [inhibitor, single point].
